Data reported in the supplement of paper PMC9446081.
About 220 (0.56%) of roughly 39,000 compounds showed activity. The list shows a part of the results.

Each compound was assayed on Escherichia coli K-12 BW25113 (assay: relative growth (OD600 normalised to plate interquartile mean) (fraction); higher = less growth inhibition, active = 0.2 or less). Settings: 50 µM; LB; incubation time: overnight (16-24 h).
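Note: static incubation at 37 °C against the wild-type strain, values averaged over two biological replicates.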

| Compound | relative growth |
| --- | --- |
| C[C@@H]1CN([C@H](C)CO)C(=O)Cc2cc(NC(=O)Nc3ccccc3)ccc2O[C@@H]1CN(C)C(=O)Nc1cccc2ccccc12 | inactive: 1.02 |
| Cc1noc(C)c1S(=O)(=O)N(C)C[C@H]1OCCCC[C@@H](C)Oc2ccc(NS(C)(=O)=O)cc2C(=O)N([C@H](C)CO)C[C@@H]1C | inactive: 0.938 |
| C[C@H](CO)N1C[C@H](C)[C@H](CN(C)Cc2ccc(C(=O)Nc3ccccc3N)cc2)Oc2ccc(NC(=O)Nc3ccc4c(c3)OCO4)cc2CC1=O | inactive: 1.02 |
| COc1ccc2c3c([nH]c2c1)[C@@H](CO)N(C[C@]13CN(C1)S(=O)(=O)c1cn(cn1)C)C(=O)Nc1ccc(cc1)F | inactive: 1 |
| C[C@H](CO)N1C[C@H](C)[C@H](CN(C)S(=O)(=O)c2cn(C)cn2)Oc2ncc(/C=C/c3ccccc3)cc2C1=O | inactive: 1.02 |
| C[C@@H]1CN([C@@H](C)CO)C(=O)c2cc(NS(=O)(=O)c3ccccc3)ccc2O[C@@H]1CN(C)S(=O)(=O)c1ccc(F)cc1 | inactive: 0.998 |
| CCCN(C)C[C@H]1OCCCC[C@@H](C)Oc2ccc(NC(=O)Nc3ccc(OC)cc3)cc2C(=O)N([C@@H](C)CO)C[C@H]1C | inactive: 0.93 |
| COc1ccc(NC(=O)N(C)C[C@@H]2Oc3ccc(NC(=O)Cn4cnnn4)cc3C(=O)N([C@H](C)CO)C[C@H]2C)cc1 | inactive: 0.992 |
| COc1ccccc1-c1ccc2c(c1)O[C@@H](CN(C)C(=O)c1ccncc1)[C@@H](C)CN([C@H](C)CO)S2(=O)=O | inactive: 0.996 |
| Cc1noc(C)c1S(=O)(=O)Nc1ccc2c(c1)C(=O)N([C@H](C)CO)C[C@H](C)[C@@H](CN(C)C(=O)Nc1cccc3ccccc13)OCCCC[C@@H](C)O2 | inactive: 0.986 |
| C[C@@H]1CCCCO[C@@H](CN(C)Cc2ccc(C(F)(F)F)cc2)[C@H](C)CN([C@@H](C)CO)C(=O)c2cc(NC(=O)Nc3ccc(F)cc3)ccc2O1 | inactive: 1.01 |
| COCCOC(=O)N1C(=O)[C@@]2(c3cc(C#CC4(O)CCCCCC4)ccc31)[C@H](c1ccc(OCCO)cc1)N1[C@H](c3ccccc3)[C@H](c3ccccc3)OC(=O)[C@H]1[C@@H]2C(=O)N1CCN(c2ncccn2)CC1 | inactive: 1.03 |
| Cc1noc(C)c1NC(=O)Nc1ccc2c(c1)C(=O)N([C@@H](C)CO)C[C@H](C)[C@H](CN(C)C(=O)NC1CCCCC1)OCCCC[C@@H](C)O2 | inactive: 0.986 |
| COc1ccc(-c2cnc3c(c2)C(=O)N([C@H](C)CO)C[C@H](C)[C@H](CN(C)C(=O)Nc2cccc4ccccc24)O3)cc1 | inactive: 0.981 |
| COc1ccc([Si](C)(C)[C@H]2[C@H](CCO)O[C@@]3(C(=O)N(Cc4ccccc4)c4ccc(N5C(=O)COc6ccccc65)cc43)[C@@H]2C)cc1 | inactive: 1.01 |
| O=C(O)c1n[nH]c2c1CCC2 | inactive: 0.981 |
| COCC#Cc1ccc([C@H]2[C@H]3CN(C(=O)CN4CCOCC4)CC(=O)N3[C@H]2CO)cc1 | inactive: 1.01 |
| C[C@H]1CN([C@@H](C)CO)C(=O)c2cc(NC(=O)CCN3CCOCC3)ccc2O[C@@H]1CN(C)S(C)(=O)=O | inactive: 1.03 |
| O=C(Nc1ccccc1)c1cc2c(c(-c3cccc(-c4ccncc4)c3)n1)[C@@H](CCO)N(CC1CCOCC1)C2 | inactive: 1.03 |
| C[C@@H]1CCCCO[C@@H](CN(C)Cc2ccc(C(F)(F)F)cc2)[C@H](C)CN([C@@H](C)CO)C(=O)c2cc(NC(=O)Cc3ccccc3)ccc2O1 | inactive: 0.993 |

| Compound | relative growth |
| --- | --- |
| C[C@H](CO)N1C[C@H](C)[C@@H](CN(C)S(=O)(=O)c2cn(C)cn2)Oc2c(NC(=O)CCCCCC(=O)Nc3ccccc3N)cccc2C1=O | inactive: 0.982 |
| C[C@H]1CCCCO[C@@H](CN(C)Cc2ccccc2)[C@@H](C)CN([C@@H](C)CO)C(=O)c2cc(NC(=O)Nc3ccc(C(F)(F)F)cc3)ccc2O1 | inactive: 0.995 |
| C[C@@H]1CN([C@H](C)CO)C(=O)c2cc(-c3ccc(C(=O)N(C)C)cc3)cnc2O[C@@H]1CN(C)C(=O)c1ccncc1 | inactive: 1.01 |
| C[C@@H]1CN([C@@H](C)CO)C(=O)Cc2cc(NS(=O)(=O)c3cn(C)cn3)ccc2O[C@@H]1CN(C)C(=O)Nc1ccc2c(c1)OCO2 | inactive: 0.973 |
| CC(C)[Si]1(C(C)C)O[C@@H](c2ccccc2)c2cc(-c3ccc(-c4ccc(Cl)c(Cl)c4)o3)nc(CCc3ccccc3)c21 | inactive: 0.989 |
| C[C@@H]1CN([C@@H](C)CO)C(=O)CCCn2nncc2CO[C@@H]1CN(C)S(=O)(=O)c1ccc(Oc2ccccc2)nc1 | inactive: 0.99 |
| CC(C)N1[C@@H]2OC(C3O[C@H]4[C@H](O3)N(C(C)C)S(=O)(=O)N4C(C)C)O[C@@H]2N(C(C)C)S1(=O)=O (stereo partly drawn) | inactive: 0.997 |
| C[C@@H]1CN([C@@H](C)CO)C(=O)Cc2cc(NC(=O)Cc3cn(C)c4ccccc34)ccc2O[C@@H]1CN(C)S(C)(=O)=O | inactive: 0.992 |
| CO[C@H]1CN(C)C(=O)c2ccc(NS(=O)(=O)c3ccccc3)cc2OC[C@@H](C)N(C(=O)NC(C)C)C[C@@H]1C | inactive: 0.986 |
| O=C(NCC(F)(F)F)[C@@H]1c2ccccc2C(=O)N(Cc2cc(F)cc(C(F)(F)F)c2)[C@H]1c1ccc(CO)cc1 | inactive: 0.978 |
| c1ccc(C2C3=C(CCCC3)SC3=C2CCCC3)cc1 | inactive: 1.03 |
| CN1CCN(C(=O)C[C@@H]2CC[C@@H]3[C@H](COC[C@H](O)CN3S(=O)(=O)c3cccc(Cl)c3)O2)CC1 | inactive: 0.98 |
| C[C@@H]1CCCCO[C@@H](CN(C)C(=O)Nc2ccccc2)[C@@H](C)CN([C@@H](C)CO)C(=O)c2cc(NC(=O)CCC(F)(F)F)ccc2O1 | inactive: 1.01 |
| COc1ccc2cc3[n+](cc2c1OC)CCc1cc2c(cc1-3)OCO2.[Cl-] | inactive: 1.06 |
| CNC(=S)NCc1ccco1 | inactive: 1 |
| Cc1noc(C)c1S(=O)(=O)N(C)C[C@@H]1Oc2c(NS(=O)(=O)c3cn(C)cn3)cccc2C(=O)N([C@H](C)CO)C[C@@H]1C | inactive: 0.976 |
| O=C(C[C@@H]1C[C@H]2c3cc(NS(=O)(=O)c4ccc(F)cc4)ccc3O[C@H]2[C@@H](CO)O1)NCc1ccccc1 | inactive: 0.988 |
| COc1cccc(NC(=O)N[C@H]2CC[C@H](CC(=O)N3CCN(C)CC3)O[C@H]2CO)c1 | inactive: 1 |
| Cc1cc(C(=O)Nc2cccc3c2O[C@@H](CN(C)Cc2ccccc2)[C@H](C)CN([C@@H](C)CO)C3=O)n(C)n1 | inactive: 1 |
| C[C@@H]1CN([C@H](C)CO)C(=O)c2cc(NC(=O)Nc3ccc4c(c3)OCO4)ccc2O[C@H]1CN(C)S(=O)(=O)c1cn(C)cn1 | inactive: 0.978 |

| Compound | relative growth |
| --- | --- |
| C=CCNC(=O)[C@H]1[C@@H]2C(=O)O[C@@H](c3ccccc3)[C@@H](c3ccccc3)N2[C@@H](c2ccccc2OCCO)[C@]12C(=O)Nc1ccc(C#CC3(O)CCCCCC3)cc12 | inactive: 1.06 |
| C[C@@H]1CN([C@@H](C)CO)C(=O)c2c(c3ccccc3n2C)-c2ccccc2CO[C@H]1CN(C)Cc1cccc(C(=O)O)c1 | inactive: 0.987 |
| COc1ccc(NC(=O)N(C)C[C@H]2Oc3ccc(NC(=O)Cn4cnnn4)cc3C(=O)N([C@@H](C)CO)C[C@@H]2C)cc1 | inactive: 1.01 |
| C=CC(=O)NC(C)(C)CCN1CCOCC1 | inactive: 0.994 |
| C[C@@H]1CCCCO[C@H](CN(C)C(=O)Nc2ccccc2)[C@@H](C)CN([C@@H](C)CO)C(=O)c2cc(NS(=O)(=O)c3ccc(Cl)cc3)ccc2O1 | inactive: 1.06 |
| C[C@H]1CCCCO[C@@H](CN(C)Cc2ccc(C(F)(F)F)cc2)[C@@H](C)CN([C@@H](C)CO)C(=O)c2cc(NC(=O)C3CCCCC3)ccc2O1 | inactive: 0.991 |
| CCN1C(=O)CS/C1=N\N1CCOCC1 | inactive: 0.997 |
| C[C@H](CO)N1C[C@H](C)[C@@H](CN(C)C(=O)c2cc(-c3ccccc3)on2)OCc2cnnn2CCCC1=O | inactive: 0.992 |
| C[C@@H]1CCCCO[C@@H](CN(C)CC2CCCCC2)[C@@H](C)CN([C@@H](C)CO)C(=O)c2cc(NC(=O)NC3CCCCC3)ccc2O1 | inactive: 1.02 |
| CO[C@@H](CN(C)S(=O)(=O)c1ccc(C)cc1)[C@H](C)CN([C@H](C)CO)S(=O)(=O)c1cccc(Cl)c1 | inactive: 1.01 |
| C[C@H]1CCCCO[C@H](CN(C)C(=O)Nc2ccc3c(c2)OCO3)[C@@H](C)CN([C@@H](C)CO)C(=O)c2cc(NS(=O)(=O)c3ccccc3)ccc2O1 | inactive: 1.01 |
| COc1ccc(NC(=O)Nc2ccc3c(c2)C(=O)N([C@H](C)CO)C[C@H](C)[C@@H](CN(C)Cc2ccncc2)OCCCC[C@@H](C)O3)cc1 | inactive: 0.983 |
| NCc1cccc(Cl)c1 | inactive: 1.03 |
| C[C@@H]1CN([C@@H](C)CO)C(=O)Cc2cc(NC(=O)Cc3cn(C)c4ccccc34)ccc2O[C@H]1CN(C)Cc1ccc(C(=O)Nc2ccccc2N)cc1 | inactive: 0.988 |
| COc1ccc(S(=O)(=O)Nc2ccc3c(c2)C(=O)N([C@H](C)CO)C[C@H](C)[C@@H](CN(C)S(=O)(=O)c2ccc(Cl)cc2)OCCCC[C@@H](C)O3)cc1 | inactive: 1.01 |
| COCCNC(=O)C[C@H]1CC[C@@H]2[C@H](COC[C@H](O)CN2S(=O)(=O)c2ccccc2C)O1 | inactive: 1.01 |
| O=C(O)C[C@@H](C(=O)O)[C@H](O)c1ccccc1 | inactive: 1.01 |
| CNC1CCC(c2ccc(Cl)c(Cl)c2)c2ccccc21.Cl (stereo not drawn) | inactive: 0.261 |
